Assay results: PubChem BioAssay (NCI)
Some structures have more than one record in an assay (separate samples or runs), and their calls can disagree.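 Each cell line was grown in a 96-well plate and treated with one concentration of compound for 48 hours. Values below 10 were considered active.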 Some entries of the source have several records that differ or are many. This is not the full list of results. The source may hold further records. Values that stand side by side are repeated measurements across runs, samples, wells, individuals or studies. Records carry a tag for their origin. The letters are not those of the source and start again with each entry. A date in brackets names the month of the test.

Key:
Assay in all cases: NCI-60 one-dose screen, 48 h (100 = growth as untreated, 0 = no growth, -100 = all killed)
Conditions in all cases: 100 µM
UACC-62 melanoma = test system: UACC-62 melanoma
TK-10 renal = test system: TK-10 renal
MCF7 breast = test system: MCF7 breast

Row | SMILES | growth (UACC-62 melanoma) | growth (TK-10 renal) | growth (MCF7 breast)
1 | Cc1ccc(/C=C2/N=C(N/N=C\C(O)C(O)C(O)CO)NC2=O)cc1 (stereo unspecified) | inactive: 90.4% [sample A, 1996-03] and active: 4.23% [sample A, 1996-03] and inactive: 95.5%, 28.2% [sample B, 1996-03] | inactive: 125%, 40.6% [sample A, 1996-03] and inactive: 144%, 73.3% [sample B, 1996-03] | inactive: 76.8%, 10.6% [sample A, 1996-03] and inactive: 77.7%, 32.1% [sample B, 1996-03]
2 | O=C1NC(N/N=C\C(O)C(O)C(O)C(O)CO)=N/C1=C/c1ccccc1 (stereo unspecified) | inactive: 63.5%, 19.8% [sample A, 1996-03] and active: -99.6%, -100% [sample B, 1996-03] and inactive: 85.2%, 51.7% [sample C, 1996-03] | inactive: 129%, 69.6% [sample A, 1996-03] and active: -61.5%, -100% [sample B, 1996-03] and inactive: 140%, 83.8% [sample C, 1996-03] | inactive: 52.7%, 37.2% [sample A, 1996-03] and active: -69.8%, -100% [sample B, 1996-03] and inactive: 74.8%, 57.9% [sample C, 1996-03]
